Assay results reported in article PMC12222028.
These are yes or no findings as the source states them, for the method shown. For part of these data: Binding seen in cells or lysates may run through a third protein. Some entries that bind do so weakly or less than the wild type. For part of these data: Tags and fused reporters may be left off the sequences shown.

Chains of the proteins cited; added tags and fusions are not shown.
UniProt P51793: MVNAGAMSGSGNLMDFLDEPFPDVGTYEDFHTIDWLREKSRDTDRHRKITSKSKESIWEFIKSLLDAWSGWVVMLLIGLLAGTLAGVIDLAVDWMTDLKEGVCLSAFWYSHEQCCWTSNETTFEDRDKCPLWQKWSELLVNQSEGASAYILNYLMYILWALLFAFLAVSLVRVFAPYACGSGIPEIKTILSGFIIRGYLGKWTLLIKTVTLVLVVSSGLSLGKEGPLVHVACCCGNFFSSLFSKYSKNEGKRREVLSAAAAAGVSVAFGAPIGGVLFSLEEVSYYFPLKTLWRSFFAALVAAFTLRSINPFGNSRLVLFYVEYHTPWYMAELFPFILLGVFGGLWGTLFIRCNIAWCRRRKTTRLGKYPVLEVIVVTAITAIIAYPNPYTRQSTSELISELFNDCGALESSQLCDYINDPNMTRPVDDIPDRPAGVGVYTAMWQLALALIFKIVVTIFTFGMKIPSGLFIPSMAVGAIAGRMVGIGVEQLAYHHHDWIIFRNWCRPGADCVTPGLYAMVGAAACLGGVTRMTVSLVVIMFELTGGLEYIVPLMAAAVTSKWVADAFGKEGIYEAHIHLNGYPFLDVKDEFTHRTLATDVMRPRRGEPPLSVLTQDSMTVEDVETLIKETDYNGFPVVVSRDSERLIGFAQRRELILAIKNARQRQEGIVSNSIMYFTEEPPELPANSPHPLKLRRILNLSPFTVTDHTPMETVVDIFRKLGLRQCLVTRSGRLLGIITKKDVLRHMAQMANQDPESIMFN

T1: CLCN3 (human (endogenous in HEK293)) (UniProt P51790)
T1 sequence: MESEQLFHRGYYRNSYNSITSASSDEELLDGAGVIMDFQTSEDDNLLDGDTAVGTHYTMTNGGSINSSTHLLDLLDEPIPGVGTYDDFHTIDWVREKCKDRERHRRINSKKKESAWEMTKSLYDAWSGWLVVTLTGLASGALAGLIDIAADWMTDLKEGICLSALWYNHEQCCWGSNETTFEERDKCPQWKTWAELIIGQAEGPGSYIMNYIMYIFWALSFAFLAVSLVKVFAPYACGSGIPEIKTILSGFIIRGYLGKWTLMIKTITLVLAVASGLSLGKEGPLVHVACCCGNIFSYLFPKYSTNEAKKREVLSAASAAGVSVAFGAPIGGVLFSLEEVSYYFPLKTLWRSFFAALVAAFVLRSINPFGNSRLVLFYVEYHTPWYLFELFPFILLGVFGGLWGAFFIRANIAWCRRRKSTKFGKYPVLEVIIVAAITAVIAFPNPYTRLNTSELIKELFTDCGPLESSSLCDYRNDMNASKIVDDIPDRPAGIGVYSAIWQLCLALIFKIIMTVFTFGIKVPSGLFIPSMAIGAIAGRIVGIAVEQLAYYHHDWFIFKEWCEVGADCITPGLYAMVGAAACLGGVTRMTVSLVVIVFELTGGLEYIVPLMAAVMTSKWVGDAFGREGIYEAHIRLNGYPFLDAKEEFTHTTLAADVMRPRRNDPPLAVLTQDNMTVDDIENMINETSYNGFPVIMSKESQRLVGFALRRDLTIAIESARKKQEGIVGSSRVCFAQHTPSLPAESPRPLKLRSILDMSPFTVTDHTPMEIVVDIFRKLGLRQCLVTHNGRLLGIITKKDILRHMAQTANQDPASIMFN

T2: CLCN5 (human (endogenous in HEK293)) (UniProt P51795)
T2 sequence: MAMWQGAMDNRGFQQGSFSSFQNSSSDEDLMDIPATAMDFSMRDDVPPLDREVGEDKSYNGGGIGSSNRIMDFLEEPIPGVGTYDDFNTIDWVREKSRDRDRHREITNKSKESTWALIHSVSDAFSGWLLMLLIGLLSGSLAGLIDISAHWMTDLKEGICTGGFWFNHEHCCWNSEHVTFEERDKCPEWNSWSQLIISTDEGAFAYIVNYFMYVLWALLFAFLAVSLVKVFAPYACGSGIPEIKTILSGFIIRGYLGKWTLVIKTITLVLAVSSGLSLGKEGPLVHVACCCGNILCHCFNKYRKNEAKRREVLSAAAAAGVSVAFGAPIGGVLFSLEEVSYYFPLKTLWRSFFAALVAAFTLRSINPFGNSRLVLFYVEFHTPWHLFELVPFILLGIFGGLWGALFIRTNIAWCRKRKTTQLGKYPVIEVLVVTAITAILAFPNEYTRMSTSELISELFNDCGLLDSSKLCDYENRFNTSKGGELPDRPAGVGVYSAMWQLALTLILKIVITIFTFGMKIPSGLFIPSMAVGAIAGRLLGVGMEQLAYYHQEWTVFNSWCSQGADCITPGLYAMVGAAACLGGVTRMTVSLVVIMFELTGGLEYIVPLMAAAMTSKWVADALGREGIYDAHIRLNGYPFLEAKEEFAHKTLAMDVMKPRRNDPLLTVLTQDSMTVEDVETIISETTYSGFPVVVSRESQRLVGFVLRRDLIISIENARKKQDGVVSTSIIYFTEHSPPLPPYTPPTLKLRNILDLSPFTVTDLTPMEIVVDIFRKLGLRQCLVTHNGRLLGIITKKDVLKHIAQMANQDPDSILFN

T3: Flag–CLCN3 (human) (UniProt P51790)
T3 sequence: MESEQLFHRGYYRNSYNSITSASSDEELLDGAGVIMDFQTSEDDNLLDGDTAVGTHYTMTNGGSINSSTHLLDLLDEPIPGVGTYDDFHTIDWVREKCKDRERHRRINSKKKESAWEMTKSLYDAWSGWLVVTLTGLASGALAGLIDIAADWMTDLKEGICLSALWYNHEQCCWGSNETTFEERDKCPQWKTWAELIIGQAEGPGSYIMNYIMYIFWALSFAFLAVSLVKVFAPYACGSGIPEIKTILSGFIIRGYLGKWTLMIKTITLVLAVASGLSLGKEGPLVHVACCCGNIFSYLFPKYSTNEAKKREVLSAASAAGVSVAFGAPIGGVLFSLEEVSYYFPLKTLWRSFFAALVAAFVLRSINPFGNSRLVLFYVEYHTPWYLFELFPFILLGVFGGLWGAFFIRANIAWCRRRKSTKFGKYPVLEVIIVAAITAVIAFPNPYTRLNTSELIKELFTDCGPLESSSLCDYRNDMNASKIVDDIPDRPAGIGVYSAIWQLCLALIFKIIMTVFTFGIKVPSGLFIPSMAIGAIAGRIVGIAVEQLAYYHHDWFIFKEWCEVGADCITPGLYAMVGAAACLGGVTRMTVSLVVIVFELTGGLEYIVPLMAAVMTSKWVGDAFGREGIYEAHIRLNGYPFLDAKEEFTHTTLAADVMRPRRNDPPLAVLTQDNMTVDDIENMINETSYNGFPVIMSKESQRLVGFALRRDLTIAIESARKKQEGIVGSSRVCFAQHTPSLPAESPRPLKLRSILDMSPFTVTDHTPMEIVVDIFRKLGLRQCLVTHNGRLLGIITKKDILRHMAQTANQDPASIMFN

T4: Flag–CLCN5 (human) (UniProt P51795)
T4 sequence: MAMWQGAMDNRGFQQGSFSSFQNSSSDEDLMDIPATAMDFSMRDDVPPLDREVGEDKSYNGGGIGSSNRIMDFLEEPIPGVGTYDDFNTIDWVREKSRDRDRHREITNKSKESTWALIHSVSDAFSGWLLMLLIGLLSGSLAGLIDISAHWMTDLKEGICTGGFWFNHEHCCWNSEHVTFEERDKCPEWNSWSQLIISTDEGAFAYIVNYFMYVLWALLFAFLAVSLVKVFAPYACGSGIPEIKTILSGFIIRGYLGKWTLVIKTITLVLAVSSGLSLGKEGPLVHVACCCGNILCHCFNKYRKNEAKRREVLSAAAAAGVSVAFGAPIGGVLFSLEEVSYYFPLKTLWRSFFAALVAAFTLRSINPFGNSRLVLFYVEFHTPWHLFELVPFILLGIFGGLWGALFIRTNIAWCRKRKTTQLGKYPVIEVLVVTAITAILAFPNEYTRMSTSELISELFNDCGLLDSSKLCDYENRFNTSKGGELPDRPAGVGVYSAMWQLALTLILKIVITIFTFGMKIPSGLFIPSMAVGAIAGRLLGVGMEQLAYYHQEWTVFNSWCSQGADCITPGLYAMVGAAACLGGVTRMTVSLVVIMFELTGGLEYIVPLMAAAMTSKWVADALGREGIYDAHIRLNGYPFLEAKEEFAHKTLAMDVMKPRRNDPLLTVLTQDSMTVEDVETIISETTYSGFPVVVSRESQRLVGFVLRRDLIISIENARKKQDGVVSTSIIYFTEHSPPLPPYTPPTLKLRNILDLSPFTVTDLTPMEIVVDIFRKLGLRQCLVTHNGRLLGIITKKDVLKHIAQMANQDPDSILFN


What was measured:
[1] = target: T1, CLCN3 (human (endogenous in HEK293)); assay: native gel or EMSA; BN-MS: 0.5% DDM extract of purified early endosomes (HEK293) on a 4-16% NativePAGE gel, 48 slices, DIA mass spectrometry; co-fractionation profiles
[2] = target: CLCN4 (human (endogenous in HEK293)) (UniProt P51793); assay: as above
[3] = target: T2, CLCN5 (human (endogenous in HEK293)); assay: as above
[4] = target: T1, CLCN3 (human (endogenous in HEK293)); assay: cross-linking; XL-MS: intact early endosomes (Endo-IP, HEK293 cells expressing Flag-EEA1, eluted with 3xFlag peptide, no detergent) cross-linked with 1 mM DSSO in KPBS at room temperature for 40 min; XlinkX, 5% FDR
Flag–CLCN3 (human) = target: T3, Flag–CLCN3 (human); assay: co-IP; HEK293 cells transfected with tagged proteins; 0.5% DDM, 25 mM HEPES pH 7.4, 150 mM NaCl; anti-HA or anti-Flag magnetic beads; immunoblot
Flag–CLCN5 (human) = target: T4, Flag–CLCN5 (human); assay: as above

binding [1] | binding [2] | binding [3] | binding [4] | binding (Flag–CLCN3 (human)) | binding (Flag–CLCN5 (human)) | Binder
binds | binds | binds | binds | – | – | TMEM9B (protein, UniProt Q9NQ34 34-198) AKNFEDVRCKCICPPYKENSGHIYNKNISQKDCDCLHVVEPMPVRGPDVEAYCLRCECKYEERSSVTIKVTIIIYLSILGLLLLYMVYLTLVEPILKRRLFGHAQLIQSDDDIGDHQPFANAHDVLARSRSRANVLNKVEYAQQRWKLQVQEQRKSVFDRHVVLS
– | – | – | – | binds | binds | HA-tagged TMEM9B (protein, UniProt Q9NQ34 34-198) AKNFEDVRCKCICPPYKENSGHIYNKNISQKDCDCLHVVEPMPVRGPDVEAYCLRCECKYEERSSVTIKVTIIIYLSILGLLLLYMVYLTLVEPILKRRLFGHAQLIQSDDDIGDHQPFANAHDVLARSRSRANVLNKVEYAQQRWKLQVQEQRKSVFDRHVVLS
